Laboratory results as given in paper PMC13225913 (Journal of medicinal chemistry, 2025).

What follows are molecules tested against recombinant human S1PR5 membrane (Homo sapiens, UniProt Q9H228). Details: not given.
Chain of UniProt Q9H228 (Q9H228 whole entry): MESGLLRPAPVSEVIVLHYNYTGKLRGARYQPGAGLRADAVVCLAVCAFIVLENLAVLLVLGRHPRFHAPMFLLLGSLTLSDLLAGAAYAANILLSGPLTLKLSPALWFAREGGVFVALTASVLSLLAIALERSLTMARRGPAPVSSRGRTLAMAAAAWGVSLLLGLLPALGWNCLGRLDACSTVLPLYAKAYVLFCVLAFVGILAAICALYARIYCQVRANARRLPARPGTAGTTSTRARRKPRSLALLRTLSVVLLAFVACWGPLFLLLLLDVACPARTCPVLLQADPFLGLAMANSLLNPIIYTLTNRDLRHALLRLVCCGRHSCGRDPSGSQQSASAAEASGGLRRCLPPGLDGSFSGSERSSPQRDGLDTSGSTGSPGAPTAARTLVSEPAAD

| SMILES | IC50 |
| --- | --- |
| COc1cc(O[C@H]2CC[C@H](C(C)(C)C)CC2)c(CN2CCC(C(=O)O)CC2)c2ccccc12 [Compound 7b, 1-((2-(((trans)-4-(tert-Butyl)cyclohexyl)oxy)-4-methoxynaphthalen-1-yl)methyl)piperidine-4-carboxylic acid] | > 1 µM |
| Cc1cc(O[C@H]2CC[C@H](C(C)(C)C)CC2)c(CN2CCC(C(=O)O)CC2)c2cc(F)ccc12 [Compound 12c, 1-((2-(((trans)-4-(tert-Butyl)cyclohexyl)oxy)-7-fluoro-4-methylnaphthalen-1-yl)methyl) piperidine-4-carboxylic acid] | 0.2 ± 0.0366 µM |
| Cc1cc(O[C@H]2CC[C@H](C(C)(C)C)CC2)c(CNCC(F)CO)c2ccccc12 (stereo partly drawn) [Compound 16h, 3-(((2-(((trans)-4-(tert-Butyl)cyclohexyl)oxy)-4-methylnaphthalen-1-yl)methyl)amino)-2-fluoropropan-1-ol] | 0.3 ± 0.066 µM |
| CSCCCNCc1c(O[C@H]2CC[C@H](C(C)(C)C)CC2)cc(C)c2ccccc12 [Compound 16m, N-((2-(((trans)-4-(tert-Butyl)cyclohexyl)oxy)-4-methylnaphthalen-1-yl)methyl)-3-(methylthio) propan-1-amine] | > 1 µM |
| Cc1cc(O[C@H]2CC[C@H](C(C)(C)C)CC2)c(CN2CCN(CCF)CC2)c2ccccc12 [Compound 16p, 1-((2-(((trans)-4-(tert-Butyl)cyclohexyl)oxy)-4-methylnaphthalen-1-yl)methyl)-4-(2-fluoroethyl)piperazine] | > 1 µM |
| COc1cc(C)c2ccccc2c1CNCCC(=O)O [Compound 19a, 3-(((2-Methoxy-4-methylnaphthalen-1-yl)methyl)amino)propanoic acid] | > 1 µM |
| Cc1cc(OCCF)c(CNCCC(=O)O)c2ccccc12 [Compound 19b, 3-(((2-(2-Fluoroethoxy)-4-methylnaphthalen-1-yl)methyl)amino)propanoic acid] | > 1 µM |
| Cc1cc(OCCCF)c(CNCCC(=O)O)c2ccccc12 [Compound 19c, 3-(((2-(3-Fluoropropoxy)-4-methylnaphthalen-1-yl)methyl)amino)propanoic acid] | > 1 µM |
| Cc1cc(OCCCCF)c(CNCCC(=O)O)c2ccccc12 [Compound 19d, 3-(((2-(4-Fluorobutoxy)-4-methylnaphthalen-1-yl)methyl)amino)propanoic acid] | > 0.9 µM |
| Cc1cc(OCCCCCF)c(CNCCC(=O)O)c2ccccc12 [Compound 19e, 3-(((2-((5-Fluoropentyl)oxy)-4-methylnaphthalen-1-yl)methyl)amino)propanoic acid] | > 1 µM |

Same assay, conditions: read-out: IC50 S1PR5; [^32P]S1P competition, recombinant human S1PR5 membrane

| SMILES | IC50 |
| --- | --- |
| Cc1cc(O[C@H]2CC[C@H](C(C)(C)C)CC2)c(CNCC(O)CF)c2ccccc12 (stereo partly shown) [Compound 16i] | 0.324 ± 0.0615 µM |
| Cc1cc(O[C@H]2CC[C@H](C(C)(C)C)CC2)c(CNCCCOCCF)c2ccccc12 [Compound 16n] | 0.312 ± 0.0435 µM |
| Cc1cc(O[C@H]2CC[C@H](C(C)(C)C)CC2)c(CN2CCN(C)CC2)c2ccccc12 [Compound 16o] | > 1 µM |
